Article PMC6953066, “A Novel Small Molecule Inhibits Intrahepatocellular Accumulation of Z-Variant Alpha 1-Antitrypsin In Vitro and In Vivo” (Cells, 2019)

Biological target: the molecule itself
Assay: native gel or EMSA; heat-induced polymerization: 2 µg purified Z-AAT incubated alone, with DMSO or with UFC1 in 4.75% DMSO (50 and 100 molar fold) at 41 °C for seven days, then 7.5% nondenaturing PAGE, 2 h at 100 V on ice

B1: Z-variant alpha 1-antitrypsin (natural protein)
chain: not shown
notes: human alpha 1-antitrypsin, Z variant (E342K), purified from the serum of PiZZ patients; Serum glycoprotein; also called Z-AAT; Z-hAAT; source: purified from PiZZ patients' serum
**Q.** Does B1 bind?
**A.** Result: binds
